The other results are listed elsewhere or left out. Read counts after selection give these values, which scatter widely. Scores sum up all selected molecules that hold the word; the word was not tested alone.
tested on: IMP3 KH3-4; assay: 6-mer SELEX enrichment z-score vs GST control; IMP3 is the RNA-binding protein IGF2BP3; higher = more enriched by binding; conditions: construct: KH3-4 (377-579); SELEX round: R4
Experimental: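 SELEX-seq with GST-tagged IMP3 KH3-4 (Pro377-Lys579) and an N40 RNA pool, round 4. 6-mer z-score of sequence-tag enrichment normalised to the corresponding GST SELEX round; RNA k-mers written as DNA (T for U).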

Sequence of IMP3 KH3-4 (chain, as listed by the source): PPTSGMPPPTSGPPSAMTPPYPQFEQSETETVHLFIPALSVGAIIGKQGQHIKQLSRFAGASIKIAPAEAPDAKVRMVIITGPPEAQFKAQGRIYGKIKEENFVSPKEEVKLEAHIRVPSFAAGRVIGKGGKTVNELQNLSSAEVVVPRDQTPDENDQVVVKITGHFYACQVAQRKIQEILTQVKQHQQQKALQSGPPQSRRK

GCTGGC was tested. Which “6-mer SELEX enrichment z-score” value did it give?
The value was 0.327.

How did the “6-mer SELEX enrichment z-score” value turn out when TTGTCC was run?
Its value is -0.115.

Which “6-mer SELEX enrichment z-score” value does the source give for GGGACT here?
The value was -0.069.

How did the “6-mer SELEX enrichment z-score” value turn out when TCACCT was run?
The value was -0.564.

With CCCTCT as the sequence, how does the “6-mer SELEX enrichment z-score” value read?
The value was -0.443.

Which “6-mer SELEX enrichment z-score” value does the source give for TGTTAC here?
Its value is 0.008.

For CGACGT, which “6-mer SELEX enrichment z-score” value is on record?
The value was -1.54.

With AGCATA as the sequence, how does the “6-mer SELEX enrichment z-score” value read?
The value was -0.102.

With TTGCAC as the sequence, how does the “6-mer SELEX enrichment z-score” value read?
The value was 0.342.

ATGCAT was tested. Which “6-mer SELEX enrichment z-score” value did it give?
The value was 0.881.

ACGAAA was tested. Which “6-mer SELEX enrichment z-score” value did it give?
Its value is -0.201.

With CGCTGT as the sequence, how does the “6-mer SELEX enrichment z-score” value read?
Its value is -0.083.

How did the “6-mer SELEX enrichment z-score” value turn out when CCTGAA was run?
Its value is -1.34.

For CAGGAT, which “6-mer SELEX enrichment z-score” value is on record?
The value was 0.866.

How did the “6-mer SELEX enrichment z-score” value turn out when CTTATC was run?
Its value is 0.18.

GAGTTT was tested. Which “6-mer SELEX enrichment z-score” value did it give?
The value was 0.07.

How did the “6-mer SELEX enrichment z-score” value turn out when CTGTGC was run?
The value was -0.279.

For TCGAAG, which “6-mer SELEX enrichment z-score” value is on record?
Its value is -0.841.

Which “6-mer SELEX enrichment z-score” value does the source give for TGGGTT here?
Its value is 0.451.

How did the “6-mer SELEX enrichment z-score” value turn out when CTAGAT was run?
Its value is 0.421.

Which “6-mer SELEX enrichment z-score” value does the source give for TCCAGC here?
Its value is -0.971.

With TGCAGG as the sequence, how does the “6-mer SELEX enrichment z-score” value read?
The value was 0.788.

With CTAGTT as the sequence, how does the “6-mer SELEX enrichment z-score” value read?
The value was -0.081.

TCGCCT was tested. Which “6-mer SELEX enrichment z-score” value did it give?
Its value is -0.196.

How did the “6-mer SELEX enrichment z-score” value turn out when TCTGTT was run?
The value was 0.429.

With GACCAC as the sequence, how does the “6-mer SELEX enrichment z-score” value read?
The value was -1.15.

Which “6-mer SELEX enrichment z-score” value does the source give for AGAAAT here?
Its value is 1.36.

Which “6-mer SELEX enrichment z-score” value does the source give for AGCGCA here?
Its value is -1.34.

With TGATAA as the sequence, how does the “6-mer SELEX enrichment z-score” value read?
The value was 2.04.

Which “6-mer SELEX enrichment z-score” value does the source give for GCTAGC here?
Its value is -0.394.

GTATCA was tested. Which “6-mer SELEX enrichment z-score” value did it give?
The value was -0.304.

CATTGT was tested. Which “6-mer SELEX enrichment z-score” value did it give?
The value was 0.461.

Which “6-mer SELEX enrichment z-score” value does the source give for CGGTGA here?
The value was 0.212.

How did the “6-mer SELEX enrichment z-score” value turn out when GGAGCC was run?
The value was -0.628.

CGATCC was tested. Which “6-mer SELEX enrichment z-score” value did it give?
Its value is -1.29.

How did the “6-mer SELEX enrichment z-score” value turn out when GGAATA was run?
The value was 1.25.

For CTCTGC, which “6-mer SELEX enrichment z-score” value is on record?
Its value is -0.551.

How did the “6-mer SELEX enrichment z-score” value turn out when CTAGGC was run?
The value was 0.128.

Which “6-mer SELEX enrichment z-score” value does the source give for GTATCC here?
Its value is -1.12.

With AAACAG as the sequence, how does the “6-mer SELEX enrichment z-score” value read?
Its value is 0.15.
